About 540 (0.36%) of roughly 150,000 compounds showed an effect of 50% or more. The list shows a part of the results.
These compounds were tested on Plasmodium falciparum (assay: Primary screen in NF54 nanoGlo assay, in single point, at 2uM, 72h; a lower Z score goes with more inhibition). Details: timepoint 72 hour.
Type: functional, Erythrocyte
With Cc1ccc(C(=O)NC2(c3cc(F)cc(F)c3)CC2)c(OCCCN)c1 the “% Inhibition” value was -5% and the Z score was 0.91.
With CC1CC(C(=O)O)CN(C(=O)Nc2cccc(NC(=O)c3ccccc3)c2)C1 (stereo not given) the “% Inhibition” value was -7% and the Z score was 1.26.
O=C(CN1CCCCC1)Nc1cc(C2CC2)nn1-c1ccccc1 was tested, and the “% Inhibition” value was 1% and the Z score was -0.24.
CC[C@H]1CCCCN1C(=O)c1cc(-c2ccc(C)s2)nc2ccccc12 was tested, and the “% Inhibition” value was -12% and the Z score was 1.82.
For Cc1c(C(=O)NCC2(Cc3ccc(Br)cc3)CC2)cnn1C, the “% Inhibition” value was -11% and the Z score was 1.15.
Cc1cc(-c2cn3cc(C(=O)NCCF)nc3c(=O)n2CC2CC2)c(C)o1 was tested, and the “% Inhibition” value was 6% and the Z score was -0.85.
For Cc1ccc2c(c1)C(C)(C)C(=O)N2CC(=O)N1CCN(c2ccccc2)CC1, the “% Inhibition” value was -11% and the Z score was 1.83.
Cc1nc(C)c(C(=O)NCC2CCC(c3nc4ccccc4[nH]3)CC2)s1 (stereo not given) was tested, and the “% Inhibition” value was -3% and the Z score was 0.49.
With C=CCN(CC(F)(F)F)C(=O)c1csc(CN)n1 the “% Inhibition” value was -5% and the Z score was 0.88.
Cn1c(=O)c2c(ncn2[C@H]2CCc3ccccc3NC2=O)n(C)c1=O was tested, and the “% Inhibition” value was 29% and the Z score was -3.23.
With Cc1cccnc1C(C)(C)CNC(=O)C1(c2cccnc2)CCCC1 the “% Inhibition” value was 1% and the Z score was -0.11.
In the case of CCn1nc(C)c([C@H](C)NS(=O)(=O)N2CCN(C)CC2)c1C, the “% Inhibition” value is reported as -9% and the Z score is reported as 1.23.
In the case of O=C1C[C@H]2CC[C@@H](CN1)N2C(=O)Cc1ccccn1, the “% Inhibition” value is reported as -9% and the Z score is reported as 1.56.
In the case of CCCS(=O)(=O)N1CCC[C@H](C(=O)Nc2ccc(OC)nc2)C1, the “% Inhibition” value is reported as -17% and the Z score is reported as 2.27.
For COc1ccc(COCc2ccc(C(=N)N)cc2)cc1, the “% Inhibition” value was -4% and the Z score was 0.58.
CCNc1ncc(C(=O)N2C[C@@H]3CC[C@H]2CN(S(C)(=O)=O)C3)cn1 was tested, and the “% Inhibition” value was -3% and the Z score was 0.51.
In the case of COc1ccc(-c2noc(N(C)CC(=O)Nc3ccc(F)c(Cl)c3)n2)cc1, the “% Inhibition” value is reported as 0% and the Z score is reported as 0.02.
In the case of CCCCCOCC(=O)Nc1cc(F)ccc1C(N)=O, the “% Inhibition” value is reported as -6% and the Z score is reported as 1.05.
In the case of CC(C)[C@@H]1CN(C(=O)COC2CCCC2)c2ccccc2N1C(=O)COC1CCCC1, the “% Inhibition” value is reported as -10% and the Z score is reported as 0.86.
For CCN(CC)C(=O)C1(NC(=O)CCc2c(C)noc2C)CCCCC1, the “% Inhibition” value was 6% and the Z score was -0.86.
With O=C(NCCc1c[nH]cn1)[C@H]1CC(=O)N(c2n[nH]c3cc(Br)ccc23)C1 the “% Inhibition” value was 2% and the Z score was -0.24.
With Cc1cc(C)n(CC(=O)N2CCC(n3c(C)nn(C)c3=O)CC2)n1 the “% Inhibition” value was -4% and the Z score was 0.58.
In the case of CC(=O)N1N=C(c2cccc3ccccc23)OC12CCCC2, the “% Inhibition” value is reported as -7% and the Z score is reported as 1.15.
For O=C1O[C@H]2CN(Cc3ccc(-c4ccn[nH]4)s3)C[C@H]2N1C1CCCC1, the “% Inhibition” value was -1% and the Z score was 0.1.
In the case of CCCOc1ccc(N)cc1OCCC, the “% Inhibition” value is reported as -7% and the Z score is reported as 1.04.
CCOc1cc(C(=O)N(C)C)ccc1N was tested, and the “% Inhibition” value was 7% and the Z score was -0.92.
For CN(Cc1cnn(C)c1)C(=O)c1cc2c(s1)CCCC2, the “% Inhibition” value was -3% and the Z score was 0.38.
For CN(C)C(=O)NCC(=O)N1C[C@@H]2CC[C@@H](C2)C1, the “% Inhibition” value was 8% and the Z score was -0.97.
Cn1cc(C(=O)N2C[C@@H]3NC(=O)c4ccc(Cl)c(c4)OCCCn4cc(nn4)CO[C@H]3C2)ccc1=O was tested, and the “% Inhibition” value was -8% and the Z score was 1.49.
For CN(C[C@H]1CCCOC1)c1nccc2sccc12, the “% Inhibition” value was -1% and the Z score was 0.2.
In the case of O=C(c1cccc(-n2cnnn2)c1)N1CCN(C(c2ccccc2)c2ccccc2)CC1, the “% Inhibition” value is reported as 10% and the Z score is reported as -1.28.
With COC(=O)[C@@]12CCCC[C@@H]1CN(C(=O)c1ccc3[nH]nnc3c1)C2 the “% Inhibition” value was -1% and the Z score was 0.07.
With O=S(=O)(N[C@H]1CCN(c2nccs2)C1)c1ccccc1Br the “% Inhibition” value was -1% and the Z score was 0.11.
With Cc1cc2c(cc3n2C[C@@](C)(C(=O)NC2CCCCCCC2)N(Cc2cccnc2)C3=O)o1 the “% Inhibition” value was -6% and the Z score was 1.01.
In the case of COc1cc(-c2cc(C(=O)N3CCCCCC3)c3ccccc3n2)cc(OC)c1OC, the “% Inhibition” value is reported as 6% and the Z score is reported as -0.7.
In the case of Cc1nc([C@H](N)[C@H](C)O)n(-c2ccc(C(C)C)cc2)n1, the “% Inhibition” value is reported as 6% and the Z score is reported as -1.21.
Cn1cc(C(=O)NC(c2ccc(F)cc2F)[C@H]2C[C@H](O)C2)cn1 (stereo not given in full) was tested, and the “% Inhibition” value was 1% and the Z score was -0.24.
For COC(=O)C1CCN(Cc2cnn(C(C)C)c2)CC1C (stereo not given), the “% Inhibition” value was -7% and the Z score was 0.79.
COc1ccnc(N[C@@H](CC(N)=O)C2CCCCC2)n1 was tested, and the “% Inhibition” value was -7% and the Z score was 1.05.
With c1nc(N2CCCC2)c2sccc2n1 the “% Inhibition” value was -2% and the Z score was 0.23.
Cc1ccc2c(c1)N(Cc1ccc(F)cc1)C=NS2(=O)=O was tested, and the “% Inhibition” value was 2% and the Z score was -0.25.
For O=S(=O)(Cc1ccc(Cl)cc1)N1CCC[C@H](Oc2ncc(Br)cn2)C1, the “% Inhibition” value was 5% and the Z score was -0.74.
For CC(=O)c1nc2ccccc2n1CC(=O)Nc1nn(C)c2cccc(Cl)c12, the “% Inhibition” value was -13% and the Z score was 1.65.
NC1(c2noc(-c3cccnc3)n2)CCCCCC1 was tested, and the “% Inhibition” value was -26% and the Z score was 3.03.
For O=C(Cn1c(=O)n(-c2cc(F)cc(F)c2)c(=O)c2sccc21)NCc1ccc(F)cc1F, the “% Inhibition” value was 39% and the Z score was -5.59.
With Cc1noc([C@H](C)NC(=O)c2cncc(O)n2)n1 the “% Inhibition” value was -13% and the Z score was 2.14.
For Cc1cccc(-c2nc(CN3CCN(c4ncccn4)CC3)c(C)o2)c1, the “% Inhibition” value was -14% and the Z score was 1.96.
In the case of C[C@H](N(C)C(=O)c1ccncc1)C(C)(C)C, the “% Inhibition” value is reported as -12% and the Z score is reported as 2.2.
For CCc1nc(C(=O)NS(=O)(=O)Cc2cccc(OC)c2)co1, the “% Inhibition” value was -4% and the Z score was 0.47.
CCN(CC)c1ccc(C(=O)Nc2ccc3c(c2)OCCCO3)cn1 was tested, and the “% Inhibition” value was -10% and the Z score was 0.92.
With CN1CCNC(=O)[C@@H]1CC(=O)NC(c1ccccc1)c1ccccc1 the “% Inhibition” value was 5% and the Z score was -1.03.
In the case of CCCOc1ccccc1[C@H]1CC(=O)NCc2nc(N3CCCC3)sc21, the “% Inhibition” value is reported as -12% and the Z score is reported as 1.25.
In the case of Cc1nc(NC(=O)[C@H]2CC(=O)N(C)[C@@H]2c2cccnc2)nn1C, the “% Inhibition” value is reported as -1% and the Z score is reported as 0.13.
For Cc1ccc(-c2nn(-c3ccccc3)cc2C(=O)N2CCC2)c(C)c1, the “% Inhibition” value was 1% and the Z score was -0.17.
For C[C@@H](CC(=O)c1cccc(Br)c1)C(=O)N1CCOCC1, the “% Inhibition” value was -4% and the Z score was 0.48.
In the case of Cc1ccc(NC(=O)CN(CC(C)C)CC(C)C)c(Br)c1, the “% Inhibition” value is reported as -9% and the Z score is reported as 1.54.
With CC(c1ccco1)N(C)C(=O)C1CCC(NC(=O)OC(C)(C)C)C1 (stereo not given) the “% Inhibition” value was -14% and the Z score was 1.52.
In the case of Cn1c(Cl)cnc1COC(=O)c1ccc2ccccc2c1, the “% Inhibition” value is reported as -7% and the Z score is reported as 1.
In the case of CC(C)NC(=O)[C@@H]1C[C@H](N)CN1C(=O)Cc1csc(-c2ccccc2)n1, the “% Inhibition” value is reported as -14% and the Z score is reported as 1.9.
With COCCN1C[C@]2(CCCN(C(=O)CCn3cccn3)C2)CCC1=O the “% Inhibition” value was 13% and the Z score was -1.7.
In the case of CCOc1cc(CNCCn2ccnc2)ccc1O[C@@H](C)C(=O)N(C)C, the “% Inhibition” value is reported as -9% and the Z score is reported as 1.29.
With CC1CCNC(=O)C1NC(=O)NCCc1ccc(Cl)s1 (stereo not given) the “% Inhibition” value was -5% and the Z score was 0.97.
In the case of O=C(C[C@H](c1ccccc1F)c1cnc2ccc(Cl)cn12)N1CCN(c2cccc(C(F)(F)F)c2)CC1, the “% Inhibition” value is reported as -5% and the Z score is reported as 0.59.
With COc1ccc(Cl)cc1C(C)(C)NC(=O)Cn1ncnn1 the “% Inhibition” value was 14% and the Z score was -1.42.
For CNC(=O)[C@H]1CCN(c2nnc(C)c3ccccc23)C1, the “% Inhibition” value was -11% and the Z score was 2.08.
With CCC(CC)C(=O)N1CC[C@H]2CC(=O)Nc3ccccc3OCC[C@H]2C1 the “% Inhibition” value was -5% and the Z score was 0.82.
In the case of Cn1ccc([C@@H]2CCCCCN2S(=O)(=O)c2ccc3c(c2)OCCO3)n1, the “% Inhibition” value is reported as -16% and the Z score is reported as 1.44.
For O=C(NC[C@H]1CCCN(C(=O)c2ccncc2F)C1)c1ccccc1, the “% Inhibition” value was 2% and the Z score was -0.23.
CN(Cc1noc(-c2ccccc2)n1)C(=O)[C@@H]1CNCC(=O)N1 was tested, and the “% Inhibition” value was -19% and the Z score was 3.48.
For CC(C)(C)C(=O)NCc1ccccc1Cl, the “% Inhibition” value was -5% and the Z score was 0.64.
With NC(=O)[C@@H]1CCCCN1C(=O)c1ccnc(-n2cccn2)c1 the “% Inhibition” value was 12% and the Z score was -1.33.
For C[C@H]1CCCCN1CCCNC(=O)CCCN1C(=O)CCn2nc(-c3cccn3C)cc21, the “% Inhibition” value was -3% and the Z score was 0.5.
With Cc1cccc(NC(=O)C(=O)NCCO)c1Cl the “% Inhibition” value was -14% and the Z score was 1.9.
In the case of Cc1ccc(F)c(N2CCC[C@H](NC(=O)CCc3cnn(C)c3)C2)c1, the “% Inhibition” value is reported as -2% and the Z score is reported as 0.25.
With CC(C)c1nccn1Cc1cc(=O)n2ccsc2n1 the “% Inhibition” value was 2% and the Z score was -0.3.
For CCCn1nc(C)cc1CN(C)c1ccc(NS(=O)(=O)c2cccc(F)c2)cc1C(=O)O, the “% Inhibition” value was -8% and the Z score was 1.03.
With CC1=C(C(=O)N[C@@H](C)c2ccc3[nH]ccc3c2)OCCO1 the “% Inhibition” value was -12% and the Z score was 2.29.
With C[C@H](NC(=O)N(Cc1ccncc1)C1CCN(C)CC1)c1cccs1 the “% Inhibition” value was -16% and the Z score was 1.39.
For Cc1noc(C)c1CCS(=O)(=O)C1CCCC1, the “% Inhibition” value was 0% and the Z score was 0.
For O=C1NC2(CCCC2)C(=O)N[C@H]1Cc1c[nH]c2ccccc12, the “% Inhibition” value was -10% and the Z score was 1.98.
For C[C@@H](CCNCc1cn(C)nc1C(C)(C)C)N(C)C, the “% Inhibition” value was 0% and the Z score was 0.02.
With O=C1OC2CC1N(C(=O)c1cnn(-c3ccccc3)n1)C2 (stereo not given) the “% Inhibition” value was -4% and the Z score was 0.7.
For CC(C)Oc1cncc(-c2ccc3c(c2)CCN3)c1, the “% Inhibition” value was -1% and the Z score was 0.14.
With C#CCCC1(CCC(=O)N2CC[C@H](c3ccc(OC)c(F)c3)C2)N=N1 the “% Inhibition” value was 5% and the Z score was -0.65.
With Cc1cc(Br)oc1C(=O)NCCOC1CCCCCC1 the “% Inhibition” value was -11% and the Z score was 1.29.

Source: ChEMBL document CHEMBL4888484, “Replenishing the malaria drug discovery pipeline: Screening and hit evaluation of the MMV Hit Generation Library 1 (HGL1) against asexual blood stage Plasmodium falciparum ,using a nano luciferase reporter read-out” (2022)
